# Test results from patent US10076533B2, “Acyclic nucleoside phosphonate diesters” (The Regents of the University of California, priority 2013, dated 2018).
# Experiments:
# [1] = test system: E377 strain of herpes simplex virus type 1; experiment: Antiviral effect in HFF cells infected with HSV-1 (E-377); settings: for Selectivity Index: HSV-1 (E-377), HFF cells
# [2] = test system: G strain of herpes simplex virus type 2; experiment: Antiviral effect in HFF cells infected with HSV-2, crystal violet; settings: for Selectivity Index: HSV-2 in HFF cells
# [3] = Human alphaherpesvirus 1, HFF, 72 h
# [4] = Human alphaherpesvirus 2, HFF, 72 h
# [5] = HFF cells infected with HSV-1 (E-377), 3 days, crystal violet
# [6] = HFF cells infected with HSV-2, 3 days
Structure (SMILES),Selectivity Index [1],"EC50 [1, 3]",Selectivity Index [2],"EC50 [2, 4]","EC50 [1, 5]","EC50 [2, 6]"
"CCCCCCCCCCCCCCCCCCOCCOP(=O)(COCCn1cnc2c(=O)[nH]c(N)nc21)OCc1ccccc1 (racemic) [Compound 1, benzyl octadecyloxyethyl 9-(2-phosphonomethoxyethyl)guanine]",>93,1080 nM,–,–,–,–
"CCCCCCCCCCCCCCCCCCOCCOP(=O)(COCCn1cnc2c(N)ncnc21)OCc1ccccc1 (centres unmarked) [Compound 2, benzyl octadecyloxyethyl 9-(2-phosphonomethoxyethyl)adenine]",<4.2,> 4000 nM,–,–,–,–
"CCCCCCCCCCCCCCCCCCOCCOP(=O)(CO[C@H](CO)Cn1cnc2c(N)ncnc21)OCc1ccccc1 (stereo partly drawn) [Compound 218, benzyl octadecyloxyethyl 9-(S)-[3-hydroxy-2-(phosphonomethoxy)propyl] adenine]",15.8,920 nM,173,40 nM,–,–
"CCCCCCCCCCCCCCCCCCOCCOP(=O)(CO[C@H](CO)Cn1ccc(N)nc1=O)OCc1ccccc1 (stereo partly drawn) [Compound 219, benzyl octadecyloxyethyl 1-(S)-[(3-hydroxy-2-phosphonomethoxy)propyl]cytosine]",15.4,1250 nM,131,100 nM,–,–
"CCCCCCCCCCCCCCCCCCOCCOP(=O)(CO[C@H](CO)Cn1ccc(=O)[nH]c1=O)OCc1ccccc1 (stereo partly drawn) [Compound 221, benzyl octadecyloxyethyl 9-(S)-[3-hydroxy-2-(phosphonomethoxy)propyl]uracil]",–,–,>2.6,3800 nM,–,–
"CCCCCCCCCCCCCCCCCCOC[C@H](COP(=O)(CO[C@H](CO)Cn1cnc2c(N)ncnc21)OCc1ccccc1)OCc1ccccc1 (stereo partly drawn) [Compound 230, benzyl 1-O-octadecyl-2-O-benzyl-sn-glyceryl 9-(S)-[(3-hydroxypropyl-2-phosphonomethoxy)propyl]adenine]",–,–,52.2,–,2770 nM,710 nM
"CCCCCCCCCCCCCCCCCCOC[C@H](COP(=O)(CO[C@H](CO)Cn1ccc(N)nc1=O)OCc1ccccc1)OCc1ccccc1 (stereo partly drawn) [Compound 231, benzyl 1-O-octadecyl-2-O-benzyl-sn-glyceryl 1-(S)-[3-hydroxy-2-(phosphonomethoxy)propyl]cytosine]",–,–,43.5,–,1400 nM,800 nM
